Experimental findings from the RNAGym collection of RNA variant scans (doi:10.7554/elife.90254) are described below.

First the molecules themselves.
B1: LINE1-full (parent)
chain: UACGUAGGUGGUUUUCCCCUGAUAGUGCUAAGGGGGCCUGGAAGUUUGGACUGGGCAGAGCUCAACACAGCGUGGCAAAGUGGCUGUGGCUAGACUGCCUCUCUGGAUUCCUCGUCACUCAGCAGGGCAUCUCUGAGAGAAAUGCC

The source gives no read counts; variants with many changes may rest on few reads.

The variants in the data set derive from B1. The experiment in a line: self-cleavage, relative activity (ratio to wild type); higher = more cleavage; in vitro, sequencing; the parent is a self-cleaving ribozyme.
Turning to UACGUAGGUGGUUUUCCCCUGAUAGUGCUAAGGGGGCCUGGGAGUUUGGACUGGGCAGAGCUCAACACAGCGUGGCAAAGUGGCUGUGGCUAGACUGCCUCUCUGGAUUCCUCGUCCCUCAGAAGGGCAUCUCUGAGAGAAAUGCC, the self-cleavage came to 0.61.

Take UACGUAGGUGGUUUUCCCCUGAUAGUGCUAAGGGGGCCUGGGAGUUUGGACUGGGCAGAGCUCAACACAGCGUGGCAAAGUGGCUGUGGCUAGACUGCCUCUCUGGAUUCCUCGUCACUCAGCAGGGCGGCUCUGAGAGAAAUGCC: the self-cleavage is 1.69.

Turning to UACGUAGGUGGUUUUCCCCUGAUAGUGCUAAGGGGGCCUGGGAGUUUGGACUGGGCAGAGCUCAACACAGCGUGGCAAAGUGGCUGUGGCUAGACUGCCUCUCUGGAUUCCUCGUCGCUCAGCAGGGCAUCUCUGGGAGGAAUGCC, the self-cleavage was 0.98.

With UACGUAGGUGGUUUUCCCCUGAUAGUGCUAAGGGGGCCUGGGAGUUUGGACUUGGCAGAGCUCAACACAGCGUGGCAAAGUGGCUGUGGCUAGACUGCCUCUCUGGAUUCCUCGUCACUCAACAGGGCAACUCUGAGAGAAAUGCC, the self-cleavage was 1.85.

In the case of UACGUAGGUGGUUUUCCCCUGAUAGUGCUAAGGGGGCCUGGGAGUUUGGACUGGGCAGAGCUCAGCACAGCGUGGCAAAGUGGCUGUGGCUAGACUGCCUCUCAGGAUUCCUCGUCACUCAGCAGGGCAUCUCUGAGAGAAAUGCC, the self-cleavage was 0.

For UACGUAGGUGGUUUUCCCCUGAUAGUGCUAAGGGGGCCUGGGAGUUUGGACUGGGCAGAGCUCAACACUGCGUGGCAAAGUGGCUGUGGCUAGACUGCCUCUCUGGAUUCCUCGUCACUCAGCAGGGCGUCUCUGAGAGAAAUGCC, the self-cleavage turned out to be 0.09.

Consider UACGUAGGUGGUUUUCCCCUGAUAGUGCUAAGGGGGCCUGGGAGUUUGGACUGGGCAGAGCUCUACACAGCGUGGCAAAGUGGCCGUGGCUAGACUGCCUCUCUGGAUUCCUCGUCACUCAGCAGGGCAUCUCUGAGAGAAAUGCC, for which the self-cleavage was 0.14.

Regarding UACGUAGGUGGUUUUCCCCUGAUAGUGCUAAGGGGGCCUGGGAGUUUGGACUGGGCAGAGCUCAACACAGCGUGGCGAAGUGGCUGUGGCUAGACUGCCUCUCUGGAUUCCUCGUCACUCAGCAGGGCAUCUCUGAGAGAAAAGCC, the self-cleavage was 2.51.

With UACGUAGGUGGUUUUCCCCUGAUAGUGCUAAGGGGGCCUGGGAGUUUGGACUGGGCAGAGCUCAACACAGCGUGGCAAAGUGGCUGUGGCUAGACUGCUUCUCUGGAUUCCUCGUCACUCAGCAGGGCAUCUCUGAGAGAACUGCC, the self-cleavage came to 1.09.

Turning to UACGUAGGUGGUUUUCCCCUGAUAGUGCUAAGGGGGCCUGGGAGUUUGGACUGGACAGAGCUCAACACAGCGUGGCGAAGUGGCUGUGGCUAGACUGCCUCUCUGGAUUCCUCGUCACUCAGCAGGGCAUCUCUGAGAGAAAUGCC, the self-cleavage was found to be 0.39.

In the case of UACGUAGGUGGUUUUCCCCUGAUAGUGCUAAGGGGGCCUGGGAGUUUGGACUGGGCAUAGCUCAACACAGCGUGGCAAAGUGGCUGUGGCUAGACUGCCUCUCUGGAUUCCUCGUCACUCAGCAGGGCGUCUCUGAGAGAAAUGCC, the self-cleavage amounted to 0.05.

As for UACGUAGGUGGUUUUCCCCUGAUAGUGCUAAGGGGGCCUGGGAGUUUGGACUGGGCAGAGCUCAACACAGCGUGGCAAAGUGGCUGUGGCUAGACUGCCUCUCUGGAUUCCUCGUCACUAAGCAGGGUAUCUCUGAGAGAAAUGCC, the self-cleavage was 0.97.

Regarding UACGUAGGUGGUUUUCCCCUGAUAGUGCUAAGGGGGCCUGGGAGUUUGGACUGGGCAGAGCUCAACACAGCGUGGCAAAGUUGCUGUGACUAGACUGCCUCUCUGGAUUCCUCGUCACUCAGCAGGGCAUCUCUGAGAGAAAUGCC, the self-cleavage worked out at 0.04.

Turning to UACGUAGGUGGUUUUCCCCUGAUAGUGCUAAGGGGGCCUGGGAGUUUGGACUGGGCAGAGCUCAACACAGCUUGGCAAAGUGGCUGUGGCUAGACUGCCUCUCUAGAUUCCUCGUCACUCAGCAGGGCACCUCGGAGAGAAAUGCC, the self-cleavage is 1.62.

For the variant UACGUAGGUGGUUUUCCCCUGAUAGUGCUAAGGGGGCCUGGGAGUUUGGACUGGGCAGAGCUCAACACAGCGUGGCGAAGUGGCUGUGGCUAGACUGCCUCUCUGGAUUCCUCGUCACUCAGCAGGGCAUCUCUGAGAGUAAUGCC, the self-cleavage came to 2.12.

For UACGUAGGUGGUUUUCCCCUGAUAGUGCUAAGGGGGCCUGGGAGUUUGGACUGGGCAGAGCUCUACACAGCGUGGCAAAGUGGCUGUGGCUAGACUGCCUCUCUGGAUUCCUCGUCACUCAGCAGGGCAUCUCUGAGAGGAAUGCC, the self-cleavage came out at 0.59.

Turning to UACGUAGGUGGUUUUCCCCUGAUAGUGCUAAGGGGGCCUGGGAGUUUGGACUGGGCAGAGCUCAACACAGCGUGGCAAAGUGGCUGUGGUUAGACUGCCUCUCUGGAUUCCUCGCCACUCAGCAGGGCAUCUCUGGGGGAAAUGCC, the self-cleavage was 0.

For the variant UACGUAGGUGGUUUUCCCCUGAUAGUGCUAAGGGGGCCUGGGAGUUUAGACUGGGCAGAGCUCAUCACAGCGUGGCAAGGUGGCUGUGGCUAGACUGCCUCUCUAGAUUCCUCGUCACUCAGCAGGGCAUCUCUGAGAAAAAUGCC, the self-cleavage amounted to 0.13.

For UACGUAGGUGGUUUUCCCCUGAUAGUGCUAAGGGGGCCUGGGAGUUUGGACUGUGCAGAGCUCAACACAGCGUGGCAAAGUGGCUGUGGCUAGACUGCCUCUCUGGAUUCCUCGUCACUCAGCAGGGCGUCUCUGAGAGAAAUGCC, the self-cleavage turned out to be 1.3.

With UACGUAGGUGGUUUUCCCCUGAUAGUGCUAAGGGGGCCUGGGAGUUUGGACUGGGCAGAGCUCUACACAGCGUGGCAAAGAGGCUGUGGCUAGACUGCCUCUCUGGAUUCCUCGUCACUCAGCAGGGCAUCUCUGAGAGAAAUGCC, the self-cleavage was 0.44.
